Results: publication PMC6919601, “Identification of Plasmodium dipeptidyl aminopeptidase allosteric inhibitors by high throughput screening” (PLoS ONE, 2019)
Several values for one entry are separate records, joined by “and”; a condition that tells them apart may be missing. Identical values can stand only once. Hit rate of the full screen: of about 110,000 compounds, about 230 (0.21%) showed an effect of 50% or more. Some of the results follow.

Target: DPAP1 (Plasmodium falciparum, UniProt Q8IIJ9)
Sequence (Q8IIJ9 whole entry, looked up): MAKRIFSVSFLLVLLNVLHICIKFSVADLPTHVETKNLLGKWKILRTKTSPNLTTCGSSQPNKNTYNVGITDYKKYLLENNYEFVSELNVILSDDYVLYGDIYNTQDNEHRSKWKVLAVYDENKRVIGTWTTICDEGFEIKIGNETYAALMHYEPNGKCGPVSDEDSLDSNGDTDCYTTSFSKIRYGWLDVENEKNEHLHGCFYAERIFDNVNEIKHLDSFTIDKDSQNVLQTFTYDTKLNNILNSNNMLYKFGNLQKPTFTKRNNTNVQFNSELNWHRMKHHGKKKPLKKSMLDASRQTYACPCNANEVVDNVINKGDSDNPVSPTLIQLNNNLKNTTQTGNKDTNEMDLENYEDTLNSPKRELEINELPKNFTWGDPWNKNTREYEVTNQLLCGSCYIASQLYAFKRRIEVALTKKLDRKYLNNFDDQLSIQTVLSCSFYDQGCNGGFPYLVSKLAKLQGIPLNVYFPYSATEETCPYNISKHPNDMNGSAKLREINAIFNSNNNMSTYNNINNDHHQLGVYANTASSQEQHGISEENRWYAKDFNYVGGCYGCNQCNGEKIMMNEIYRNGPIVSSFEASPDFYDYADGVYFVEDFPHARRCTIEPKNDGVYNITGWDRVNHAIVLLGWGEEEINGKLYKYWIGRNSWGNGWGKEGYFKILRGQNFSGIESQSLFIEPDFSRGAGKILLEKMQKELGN
Assay: primary screen, percent inhibition; read by cleavage of a fluorogenic dipeptide substrate; higher = more effect of the substance
Set-up: species or system P. falciparum D10 trophozoite lysates; single well
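Also: 30 min substrate incubation versus DMSO and 10 µM JCP410 controls.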

Structure (SMILES)	% Inhibition @ 10 uM
O=C(NCc1ccccc1Cl)c1ccc(CNc2c(NC3CCCC3)c(=O)c2=O)cc1	6.3%
Cc1cc(C(=O)Nc2sc3c(c2C#N)CCC(C(C)(C)C)C3)no1 (centres unmarked)	2.4%
Cc1cc(C)c2c(NC(=O)c3ccccc3Cl)nn(C)c2n1	19.6%
CCOC(=O)C1=C(C)N=c2s/c(=C\c3ccccc3F)c(=O)n2C1/C=C/c1ccccc1 (centres unmarked)	-6.08%
CCN(CC)C(=O)c1ccc(CS(=O)c2ccccc2Cl)o1 (centres unmarked)	2.3%
COCCNc1sc(S(=O)(=O)c2ccccc2)nc1S(=O)(=O)c1ccc(C)cc1	-5.15%
S=C(Nc1ccccc1)N1CCn2c3c(c4cc(C5CCCCC5)ccc42)CCCC31 (centres unmarked)	3.15%
Cc1nc(-c2ccc(NC(=O)c3ccncc3)cc2)cs1	0.583%
CCC(Sc1nc(N)c(C#N)c(-c2ccccc2)c1C#N)C(=O)Nc1cc(C)on1 (centres unmarked)	4.32%
CC1CCC(NCCc2ccc3c(c2)OCO3)CC1 (centres unmarked)	-10.6%
COCc1cc(C)nc2sc(C(=O)c3ccc(Cl)cc3Cl)c(N)c12	1.57%
COc1ccc(CN2CCN(Cc3cccc(F)c3)CC2)c(OC)c1	-11.4%
O=C(O)CN1CCN(Cc2ccc(F)cc2Cl)C1=O	-4.16%
CC(C)COc1ccc(C=C2C(=O)NC(=O)NC2=O)cc1Br	20.5%
CN(CCNc1ncnc2onc(-c3ccc(Cl)cc3)c12)C1CCCCC1	1.15%
N#C/C(=C\C=C\c1ccccc1)c1nc2ccccc2[nH]1	-2.98%
CCC1C(=O)N=C(SCC(=O)NC2CCCCC2)NC1=O (centres unmarked)	-4.41%
Clc1cccc(N2CCN(Cc3ccccc3Cl)CC2)c1	-1.38%
CC1=CCC(C(C)(C)NC(=O)c2ccccc2)C/C1=N/O (centres unmarked)	4.63%
O=C(c1ccc(CS(=O)(=O)Cc2cccc(Cl)c2)o1)N1CCOCC1	0.718%
Cc1cc(C)c(C#N)c(SCC(=O)c2cccc(Br)c2)n1	-2.8%
Cc1ccccc1OCc1nc2c3c(C)c(C)oc3ncn2n1	0.098%
Cn1ncc2c(NCCCO)ncnc21	0.258%
COCCCNC(=O)CSc1nc2c(sc3ccccc32)c(=O)n1Cc1cccnc1	4.02%
CCCNC(=O)c1ccc2c(c1)nc(C)n2-c1cccc(Cl)c1	1.42%
CCc1nnc2c3c4c(sc3ncn12)CCCC4	-2.62%

Structure (SMILES)	% Inhibition @ 10 uM
CC(C)c1ccc(C2NC(C(=O)O)CS2)cc1 (centres unmarked)	-7.97%
COc1cc(Br)c(CCNC(=O)COc2ccc(C)cc2)cc1OC	-3.68%
O=C(c1ccc(F)cc1)N1CCN(C(=O)c2ccc(F)cc2)CC1	1.38%
O=C(CSc1nc2nccnc2c(=O)n1Cc1cccs1)NCCc1ccccc1	1.68%
C1=C(c2ccc3c(c2)c2c4n3CCNC4CCC2)CCC1 (centres unmarked)	2.25%
CCCCNC(=O)CN(C)S(=O)(=O)c1ccc(OC)cc1	1.78%
N#CC1=C(N)Oc2[nH]nc(-c3ccccc3)c2C1c1ccc(Br)s1 (centres unmarked)	8.6%
CN1C2CCC1CC(NC1CCCCC1)C2 (centres unmarked)	2.6% and -6.36%
c1cc2c(cc1-c1nnc(CC34CC5CC(CC(C5)C3)C4)o1)OCO2	-2.12%
O=C1c2ccccc2NC(c2ccc3c(c2)OCO3)N1Cc1ccccc1 (centres unmarked)	-1.74%
Cc1noc(/C=C/N2CCOCC2)c1S(=O)(=O)N1CCCC(C(=O)NC2CCCC2)C1 (centres unmarked)	-0.458%
CC(=O)c1cc(-c2ccc(F)cc2)n(CC(=O)NC2CCCC(C)C2C)c1C (centres unmarked)	1.47%
COCc1cc(C)nc2sc(C(=O)N3CCC(C)CC3)c(N)c12	-3.5%
CC(=O)CC(=O)Nc1cccc(C(F)(F)F)c1	1.7%
O=C1c2[nH]nc(-c3ccccc3O)c2C(c2cccc(O)c2)N1CCO (centres unmarked)	-1.35%
CCCCC(=O)Nc1cc(N(C)C)nc2ccccc12	1.9%
O=C1[C@@H]2C3C=CC(O3)[C@H]2C(=O)N1CNc1ccc(Cl)c(Cl)c1	1.96%
CCc1ccc2c(c1)C(O)(CC(=O)c1cccs1)C(=O)N2 (centres unmarked)	1.17%
O=S(=O)(Nc1nc2ccc(Cl)cc2s1)c1ccccc1	3.01%
CCCc1cc(O)nc(SCC(=O)Nc2ccc(SC#N)cc2)n1	0.843%
CCOC(=O)c1[nH]c(C)c(C(=O)O)c1C	3.42%
CCOC(=O)c1cc(-c2ccc(F)cc2)n(CC(=O)N2CCc3ccccc3C2)c1C	-1.88%
CC1=C(CCN2CCN(c3ccc([N+](=O)[O-])cc3)CC2)C(C)(C)CCC1	1.42%
CC(C)(C)NC(=O)c1ccccc1NC(=O)CCN1C(=O)c2ccccc2C1=O	0.777%
CCC(=O)/N=C(\N)Nc1nc(C)c2cc(C)cc(C)c2n1	5.55%
COc1cccc(Cn2c(SCc3ccc(C(=O)NCC4CCCO4)cc3)nc3ccncc32)c1 (centres unmarked)	1.41%

Structure (SMILES)	% Inhibition @ 10 uM
COc1ccccc1CC(C)NC(C)CCCC(C)(C)O (centres unmarked)	-0.0908%
CCOC(=O)N1CCN(Cc2cc(C)ccc2C)CC1	-4.95%
CCOC(=O)N1CCN(C(=O)c2ccc(CS(=O)Cc3ccccc3Cl)o2)CC1 (centres unmarked)	-4.82%
N#C/C(=C/c1ccc(F)cc1)c1nc(-c2ccc([N+](=O)[O-])cc2)cs1	7.04%
COCCn1c(CN2CCN(CCO)CC2)nc2c1c(=O)n(C)c(=O)n2C	-7.05%
CCOc1cc(CNc2ccccc2C)ccc1OC	-4.68%
CC(=O)c1cccc(NC(=O)/C=C/c2ccc3c(c2)OCO3)c1	3%
COc1ccc(C(=O)Nc2sc3c(c2C(N)=O)CCCC3)cc1	3.7%
NS(=O)(=O)c1ccc(CNC(=O)c2cc(=O)c3cc(Cl)ccc3o2)cc1	-1.47%
Cc1nn(C(=O)/C=C/c2ccccc2)c2c1C1C(C2)C1(C)C (centres unmarked)	4.41%
Cc1cc2nc(SCC(=O)C(C)(C)C)[nH]c2cc1C	2.94%
CC(C)n1cc(/C=C2/SC(=O)N(CC(=O)N3CCCC3)C2=O)c2ccccc21	-4.5%
C/N=c1\c(NS(=O)(=O)c2cccc(C#N)c2)c(O)oc2ccccc12	-1.21%
Cc1cccc(-n2c(O)cc(=O)nc2SCc2ccccc2)c1	-1.38%
CN1C(=O)N(C)C(=O)C(CCc2ccncc2)(CCc2ccncc2)C1=O	18.1%
Cc1cc(OCC(=O)Nc2ccc(S(=O)(=O)Nc3onc(C)c3C)cc2)cc(C)c1Cl	3.68%
CC1C(C)C(O)(c2ccccc2)CCN1C (centres unmarked)	6.33%
Cc1nc2ncnn2c(O)c1CCC(=O)NCc1ccc2c(c1)OCO2	-3.33%
COC(=O)c1ccccc1NC(=O)Cc1cccs1	-7.5%
CC(=O)Nc1cccc2c1sc1nc3n(c(=O)c12)CCCCC3	-7.87%
CCC(Cc1ccccc1)NCc1c(C(=O)O)c(C)n(Cc2ccccc2)c1C (centres unmarked)	1.41%
COc1cc2c3c(c1OC)C1(C=CC(=O)C=C1)CC3N(S(=O)(=O)c1ccc(C)cc1)CC2 (centres unmarked)	2.1%
CCC(NC(=O)c1ccccc1)c1ccc(OC)c(OC)c1 (centres unmarked)	-3.45%
COc1ccc(N2C(=O)CC(N(CCc3ccc(OC)c(OC)c3)C(C)=O)C2=O)cc1 (centres unmarked)	-3.09%
N#C/C(=C\c1c(Oc2ccccc2)nc2ccccn2c1=O)C(=O)NCCc1ccccc1	1.06%
COc1ccc(CC(=O)Nc2cccc(C#N)c2)cc1	1.59%

Structure (SMILES)	% Inhibition @ 10 uM
COc1cccc(S(=O)(=O)NCc2ccc(C(=O)Nc3cccnc3)cc2)c1	-7.25%
CC1(C)C2CCC1(C)C(/N=C/C1=C(O)c3ccccc3C1=O)C2 (centres unmarked)	-5.08%
Cc1ccc2c(c1)c1c3n2CCN(CC(O)CN2CCN(C(=O)c4ccco4)CC2)C3CCC1 (centres unmarked)	1.96%
COc1ccc(/C=C2/SC(=O)N(CC(=O)N3CCN(c4ccccc4)CC3)C2=O)c(C)c1	1.8%
CCOc1ccc(N(C(C)=O)C2SC(=O)N(c3ccccc3)C2=O)cc1 (centres unmarked)	9.94%
Cc1ccc2c(cnn2C(=O)CCC(=O)NCc2ccccc2C)c1	-2.88%
COCc1cc(C)nc2sc3c(c12)NC(c1ccccc1Cl)NC3=O (centres unmarked)	1.57%
CCOC(=O)C1=C(C)NC(=O)NC1c1ccc(O)cc1 (centres unmarked)	-0.128%
COC(=O)c1ccc(OCC2c3cc(OC)c(OC)cc3CCN2C(=O)C2CC2)cc1 (centres unmarked)	-1.79%
CC(C)c1ccc(C2C(C(=O)c3ccccc3)=C(O)C(=O)N2c2nccs2)cc1 (centres unmarked)	3.58%
CCOc1ccc(-c2cc(NC(=O)c3ccc(Br)o3)c(C(=O)O)s2)cc1	2.84%
COC(=O)CSc1nc2ccccc2s1	3.48%
Cc1ccc(-c2csc(Nc3ccc(Cl)cc3)n2)cc1	0.912%
CC1CCN(S(=O)(=O)c2ccc(S(=O)(=O)N3CCN(c4ncccn4)CC3)cc2)CC1	-1.15%
Cc1ccc(-n2c(O)cc(=O)nc2SCc2ccccc2)cc1	3.62% and -2.36%
COc1cc(OC)cc(C(=O)NCCn2ccc3ccccc32)c1	-0.396%
O=C(Nc1ccn(-c2ccccc2)n1)c1ccc(Cl)cc1	1.64%
CC(NC(=O)C(NS(=O)(=O)c1cccc2nsnc12)c1ccccc1)c1ccccc1 (centres unmarked)	2%
Cc1sc2cc(Cl)ccc2[n+]1CCCS(=O)(=O)O	-3.5%
CCCCc1c(O)n2ccccc2nc1=O	0.716%
O=C(NCCSc1ccccn1)c1cccc(Cl)c1	-1.81%
COC(=O)c1c(C)nn(-c2ccc(F)cc2)c1N	-1.75%
N#C/C(=C\c1ccc(Cl)cc1)c1nc(C2CC2)cs1	0.98%
